PubChem BioAssay AID1346428 (National Center for Advancing Translational Sciences (NCATS), 2018)
“And” between values parts separate entries of the source, which are not always exact repeats. Equal entries are not always repeated. Hit rate of the full screen: of about 48,000 compounds, about 1,200 (2.5%) were called active. Roughly 2% stayed inconclusive and do not appear here.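 The calls were made as follows: active = activation of at least 60% and not above a set upper limit (about 1 call in 100 departs from these limits); inconclusive = activation of 40% to 60%, or above that upper limit; inactive = activation under 40%.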 The list shows a part of the results.

Biological target: Probable G-protein coupled receptor 32 (Homo sapiens) (UniProt O75388)
Assay: qHTS for Agonists of Human Resolvin D1 Receptor DRV1; also: 0% is about no effect
Details: CHO-K1 GPR32 beta-arrestin PathHunter luminescence, 90 min; at 76.9 µM; stronger effect = higher value; zero percent set by DMSO-only wells
How it was run: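 PathHunter beta-arrestin recruitment in CHO-K1 cells stably expressing ProLink-tagged GPR32. Cells were exposed to compound for 90 min at 37 C, then chemiluminescence was read after 1 h detection at ambient temperature; DMSO served as basal control.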

Sequence of UniProt O75388 (O75388 whole entry, looked up): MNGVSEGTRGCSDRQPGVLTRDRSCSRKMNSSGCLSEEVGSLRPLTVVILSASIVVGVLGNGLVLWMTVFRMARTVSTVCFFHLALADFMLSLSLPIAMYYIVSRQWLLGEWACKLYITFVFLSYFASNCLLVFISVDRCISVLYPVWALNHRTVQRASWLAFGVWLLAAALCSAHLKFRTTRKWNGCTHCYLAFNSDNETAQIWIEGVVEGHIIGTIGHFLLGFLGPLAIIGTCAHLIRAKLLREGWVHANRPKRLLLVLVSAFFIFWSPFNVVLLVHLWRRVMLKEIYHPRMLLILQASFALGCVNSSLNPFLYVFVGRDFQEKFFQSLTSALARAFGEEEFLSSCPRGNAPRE

activation, inactive:
CCN(CC)S(=O)(=O)c1ccc2c(c1)N(CC(=O)NCc1ccccc1)C(=O)C1CCCCN21 (stereo not drawn) -17.7%
COc1ccc2oc(=O)c(-c3nnc(-c4ccc(C)cc4)o3)cc2c1 -12.5%
O=C(CSc1oc(-c2ccccc2)nc1S(=O)(=O)c1ccc(Cl)cc1)c1ccccc1 -16.5%
Cc1ccc2c(=O)cc(C(=O)Nc3ccc(S(=O)(=O)Nc4onc(C)c4C)cc3)oc2c1C 0.341%
Cc1ccc(-n2cc(C(=O)Oc3ccc(F)cc3)c3ccccc3c2=O)cc1 -13.5%
O=C(CC1C(=O)N(c2ccc(F)cc2)C(=O)N1Cc1ccc2c(c1)OCO2)Nc1ccc(Cl)cc1 (stereo not drawn) 32.2%
Cc1cc(C)nc(-n2nc(C)c3c2N(Cc2ccccc2)C(=O)CC3c2ccc(Cl)cc2)n1 (stereo not drawn) -18.9%
Cc1c(Cl)cccc1NS(=O)(=O)c1ccc(-c2cnc(C3CC3)o2)cc1 -4.23%
CCN(C(=O)Cn1c(=O)n(-c2ccccc2)c(=O)c2ccc(C(=O)NCc3ccc4c(c3)OCO4)cc21)c1cccc(C)c1 -3.07%
O=C(CCn1c(=O)c2cccn2c2cccnc21)Nc1ccccc1C(F)(F)F -8.07%
CCC(=O)N1c2ccccc2CC1C(=O)NCc1cc(OC)ccc1OC (stereo not drawn) 21%
Cc1cc(C)cc(OCC(=O)Nc2c(C(=O)c3ccccc3)oc3ccccc23)c1 -9.14%
CCCCn1cnc2cc(NCc3ccc(OCC)cc3)ccc21 -55.2%
CC(C)c1ccc(NC(=O)c2cc(S(=O)(=O)N(C)C3CCCCC3)ccc2F)cc1 -22.4%
C[C@@H](NC(=O)/C(C#N)=C/c1ccc(O)c(O)c1)c1ccccc1 -23.3%
CCOc1ccc(NC(=O)c2cc(S(=O)(=O)N3CCc4ccccc43)ccc2F)cc1 -14.2%
CCCCCCCCCCCCSCCOCCO -7.19%
O=C(c1ccco1)N(Cc1cccnc1)c1nc2c(F)cc(F)cc2s1 -20%
CCc1ccccc1NC(=O)Cn1cc(S(=O)(=O)N2CCCC2)c(S(=O)(=O)N2CCCC2)c1 1.28%
CCOCCCNC(=O)C(c1ccccc1)N(Cc1ccc2c(c1)OCO2)C(=O)c1ccc(NC(C)=O)cc1 (stereo not drawn) -8.9%
Cc1ccccc1CNC(=O)c1ccc2nc(SCc3ccc(F)cc3)n(C)c2c1 -6.27%
COc1ccccc1NC(=O)CSc1nncn2c1cc1sccc12 -2.57%
C[C@]12CC[C@@H]3c4ccc(O)cc4C[C@@H](CCCCCCCCCS(=O)CCCC(F)(F)C(F)(F)F)[C@H]3[C@@H]1CC[C@@H]2O (stereo partly drawn) -9.6% and -27.1%
CCCOc1ccc(-c2cccc(NS(=O)(=O)c3ccccc3)c2)nn1 -10.5%
Cc1ccccc1CN1C(=O)c2ccccc2S(=O)c2ccc(C(=O)NCc3ccc(Cl)cc3)cc21 (stereo not drawn) -23.3%
CCc1ccccc1NC(=O)CN(c1ccccc1)S(=O)(=O)c1ccsc1C(=O)OC -11.1%
O=C(NCc1ccc2c(c1)OCO2)c1ccc2c(c1)N(Cc1ccccc1F)C(=O)c1ccccc1S2 -18.4%
Cc1ccc2cccc(NC(=O)c3ccc(OC(C)C)cc3)c2n1 -8.49%
Cc1c(Cl)cccc1NC(=O)c1ccc2c(c1)CCCN2S(C)(=O)=O 20.5%
CC(C)c1ccc(OCC(=O)NCCS(=O)(=O)N2CCN(c3ccc(F)cc3)CC2)cc1 -2.61%
Cc1ccc(CNC(=O)Nc2cc(C(=O)NCc3ccc(C(C)C)cc3)ccc2N2CCCC2)cc1 -13.2%
CC(C)(C)OC(=O)N1CCC(c2c(C(=O)NCCN3CCc4ccccc4C3)cnn2-c2ccc(F)cc2)CC1 -5.58%
CCCCOc1ccc(C(=O)Nc2ccc(-c3cc4ccccc4oc3=O)cc2)cc1 1.08%
Cc1cc(C)cc(-n2c(C)cc(C(=O)C(=O)Nc3ccccc3F)c2C)c1 -10.2%
CCN1C(=O)c2ccccc2Sc2ccc(NC(=O)N3CCN(c4cc(C)ccc4C)CC3)cc21 -9.13%
CCOC(=O)c1ccc(NC(=O)C(CC)Sc2nc3ccncc3[nH]2)cc1 (stereo not drawn) 15.9%
COc1ccccc1C(=O)N1c2ncnn2C2(CCCCC2)[C@@H]2CCCC[C@@H]21 -4.42%
COc1ccc(Cn2c(C(=O)O)c(CNC3CCCC3)c3ccc(OC)cc32)cc1 19.6%
CCOc1ccc(-c2nn(-c3ccccc3)cc2C2NC(=O)NC(C)=C2C(=O)OC(C)C)cc1 (stereo not drawn) -0.713%
CSc1nc(Nc2ccc(F)cc2)cc(-c2ccccc2)n1 30.9%
CCOc1ccc(CC(=O)NCCc2sc3nc(-c4ccc(F)cc4)nn3c2C)cc1 -28.7%
Cc1ccc2ncc(C(=O)c3ccc(C)c(C)c3)c(S(=O)(=O)c3ccc(F)cc3)c2c1 -14.2%
Cc1c(C)n(CCN(C)C)c2ccc(C(=O)OCCN(C)C)cc12 8.54%
CC(C)N(Cc1nc(-c2ccc(Cl)cc2)no1)C(=O)c1ccc(C(C)(C)C)cc1 -2.3%
Cc1ccccc1Cn1c(SCc2ccc(C(=O)NC3CCCCC3)cc2)nc2ccncc21 -1.65%
Cc1nc(SCc2cccc(Cl)c2)nc2c1CCCC2 -0.942%
Cc1ccc(CNc2nnc(C)c3nnn(Cc4ccc(F)cc4)c23)cc1 10.1%
COc1cc(NC(=O)Cn2c(=O)cc(C)c3c(C)nn(-c4ccc(C)cc4)c32)cc(OC)c1 7.4%
CC(=O)N1c2ccc(S(=O)(=O)N3CCCCCC3)cc2CC1C(=O)NCc1cccc(C)c1 (stereo not drawn) -4.98%
CCOc1ccc(-c2cc3nc(C4CCN(C(=O)OC(C)(C)C)CC4)c(C(=O)Nc4cccc(CC)c4)cn3n2)cc1 -3.56%
Fc1ccc(NCc2ccccc2-c2nnc(-c3ccccc3Cl)o2)cc1 -18.6%
CC1=C(c2ccc(Cl)cc2)S(=O)(=O)N=C1N1CCN(c2cccc(C)c2C)CC1 -3.31%
COc1cccc(CN2C(=O)c3ccccc3Sc3ccc(C(=O)OCc4ccco4)cc32)c1 -12.5%
CC(C)(C)c1ccc(-c2nc(NC(=O)CSc3ncnc4sc5c(c34)CCCC5)ns2)cc1 -22.7%
Cc1ccc(-n2ccn(CC(=O)NCCc3ccccc3)c(=O)c2=O)cc1C 4.08%
CCCCOc1ccc(C(=O)N(Cc2ccc(N(C)C)cc2)Cc2ccco2)cc1 -41.2%
CCSc1nc2n(n1)C(c1ccc(Cl)cc1Cl)C(C(=O)Nc1ccccc1C)=C(C)N2 (stereo not drawn) 36%
COc1ccc(N2CC(NC(=O)/C=C\c3ccc4c(c3)OCO4)CC2=O)cc1OC (stereo not drawn) -0.278%
CCc1ccc(NC(=O)CSc2nccn2-c2ccc(F)cc2)cc1 -7.82%
COc1ccc(NC(=O)CN(C)S(=O)(=O)c2ccc3c(c2)CCCN3C(C)=O)cc1 -7.88%
O=S(=O)(Nc1cccc(C(F)(F)F)c1)c1ccc(-c2cnc(C3CC3)o2)cc1 -34.6%
Cc1ccc(-n2nnc(-c3nc(-c4cccs4)no3)c2N)c(C)c1 -1.41%
CC(C)c1ccc(OCC(=O)Nc2c(C(=O)c3ccc(F)cc3)oc3ccccc23)cc1 16.3%
COc1ccc(S(=O)(=O)c2c(C(=O)c3ccc(C)c(C)c3)cnc3ccc(F)cc23)cc1 -23.1%
COc1ccccc1CNC(=O)Cn1ncn2c(cc3sccc32)c1=O -5.21%
Cc1ccc(Nc2c(-c3ccsc3)nc3c(C)cccn23)cc1 7.24%
CCCCCSc1nc2sc3c(c2c(=O)n1-c1ccc(OC)cc1)CCN(C(C)=O)C3 47.2%
COc1ccccc1NC(=O)CC(c1cc(OC)c(OC)c(OC)c1)N1Cc2ccccc2C1=O (stereo not drawn) 15.1%
COc1ccc(S(=O)(=O)NCc2cccn2Cc2cccc(C)c2)cc1 -8.53%
CC(C)NCC(O)COc1cccc2ccccc12 (stereo not drawn) 1.42%
COc1cc2c(cc1NC(=O)COc1ccc(Cl)cc1Br)oc1ccccc12 0.692%
CCOC(=O)CSc1nnc2n(-c3ccccc3)c(=O)c3c4c(sc3n12)CC(C(C)(C)C)CC4 (stereo not drawn) -41.5%
Cc1c(C)n(C)c2ccc(C(=O)NCc3cccc(F)c3)cc12 -17.1%
Cn1ccc2c(OCC(=O)NCc3ccccc3)cccc2c1=O 8%
COCCNC(=O)c1c[nH]c2ccc(S(=O)(=O)Nc3ccc(F)cc3F)cc2c1=O -12.8%
COc1ccccc1CNS(=O)(=O)c1ccc(-c2cnc(C3CC3)o2)cc1 18.2%
CCc1ccccc1NC(=O)CCOc1ccccc1 6.82%
Cc1ccc(N2CC(NC(=O)c3cc4ccccc4o3)CC2=O)cc1C (stereo not drawn) -9.81%
CC(C)c1nn2c(=O)cc(COC(=O)c3cccc(NC(=O)c4cccs4)c3)nc2s1 -24.9%
CCCOc1ccc(-c2nonc2NC(=O)c2cc(OC)c(OC)c(OC)c2)cc1OCCC -18.5%
CCc1ccc(C2=NN(CCC(=O)NCCc3ccc(OC)c(OC)c3)C(=O)CC2)cc1 -16.2%
Cc1ccccc1C(=O)Nc1ccc2nc(SCC(=O)N3CCc4ccccc43)sc2c1 11.4%

activation, active:
Cc1cccc(NC(=O)CSc2nc3ccc(NC(=O)c4ccccc4)cc3s2)c1 60.2%
